In all, about 33,000 sequences were measured (“E-score (-0.5 to 0.5)”: median about -0.012, highest 2% from about 0.29 on). The list shows a part of the results.
What follows are sequences tested against T1, Ybr033w (UniProt P38073) (assay: PBM E-score (8-mer binding enrichment) (E-score (-0.5 to 0.5)); higher = stronger / more preferred TF binding; most listed sequences are background and not binding sites). Conditions: protein concentration: 200 nM; construct: GST-full length.
T1 sequence: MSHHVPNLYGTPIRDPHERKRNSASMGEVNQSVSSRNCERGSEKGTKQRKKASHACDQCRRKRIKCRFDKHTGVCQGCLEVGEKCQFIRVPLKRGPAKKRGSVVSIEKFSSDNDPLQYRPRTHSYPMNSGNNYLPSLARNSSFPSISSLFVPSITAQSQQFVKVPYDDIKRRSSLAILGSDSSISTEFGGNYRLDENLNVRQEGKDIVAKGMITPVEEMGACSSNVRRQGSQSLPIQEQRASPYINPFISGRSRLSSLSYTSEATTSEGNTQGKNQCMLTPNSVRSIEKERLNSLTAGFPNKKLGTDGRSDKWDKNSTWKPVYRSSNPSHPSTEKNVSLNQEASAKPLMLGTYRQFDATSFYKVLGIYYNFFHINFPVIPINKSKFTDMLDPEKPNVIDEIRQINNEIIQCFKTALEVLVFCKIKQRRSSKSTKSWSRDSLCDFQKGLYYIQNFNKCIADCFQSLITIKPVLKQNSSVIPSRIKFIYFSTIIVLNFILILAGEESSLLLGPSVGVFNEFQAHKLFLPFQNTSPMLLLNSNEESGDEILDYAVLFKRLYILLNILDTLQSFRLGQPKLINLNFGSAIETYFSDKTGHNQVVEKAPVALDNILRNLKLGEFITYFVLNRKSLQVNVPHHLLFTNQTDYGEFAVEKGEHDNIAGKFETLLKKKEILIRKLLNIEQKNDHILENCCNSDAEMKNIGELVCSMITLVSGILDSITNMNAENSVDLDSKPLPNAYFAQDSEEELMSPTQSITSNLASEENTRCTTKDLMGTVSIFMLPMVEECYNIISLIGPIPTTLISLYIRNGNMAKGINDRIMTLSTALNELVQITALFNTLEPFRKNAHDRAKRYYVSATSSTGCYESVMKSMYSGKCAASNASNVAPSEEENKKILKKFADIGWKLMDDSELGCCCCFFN
Method in brief: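 For each ungapped eight-base word taken together with its reverse complement, the Universal PBM Analysis Suite assigned an E-score. Binding data came from GST-tagged yeast transcription factors, applied at about 100-200 nM, on universal all-10-mer Agilent arrays made double-stranded by primer extension. Fluorescent anti-GST marked bound protein, and scans were normalised with masliner.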

Sequence | PBM E-score
AGGAGCAA | -0.221
CTGGTCGA | -0.173
AATTCGAA | 0.187
GATAGTTA | 0.151
ACACTTGG | 0.0106
GGTGCCAA | -0.0332
ACTTCGAG | -0.00832
ATCGGCTC | -0.0987
AGAATTCC | 0.0767
AAACATCA | 0.144
AGGTAGGG | -0.11
AGACGTTA | -0.143
GACCTTGA | 0.0594
TGTCAGAA | 0.0665
ATGCAACC | 0.0993
ACGTTGAA | 0.0704
GCTACAAA | 0.0727
CATGCACG | -0.0999
AAGGATGA | 0.0188
CACTATTC | 0.181
CTGGACCA | -0.179
AAGAGATG | -0.136
AAGTTCGG | -0.0232
GGATTAAC | 0.441
CCCGCCTA | -0.0275

Sequence | PBM E-score
AATAAGAC | 0.0344
CGTCTAGC | -0.0278
AAGCCCGA | -0.0933
ATCGACCA | -0.101
CGAGAATC | -0.0666
ACACAATC | 0.0933
ACCCGCAC | -0.00772
TGATTGCA | 0.146
AGGACTCG | -0.322
GACAAATA | 0.277
CAGGGATC | -0.108
AAATCCCG | 0.196
AGGATTGC | -0.143
CAGACGGG | -0.122
ATGATATC | 0.00879
CGCCGCTC | -0.255
CCCCACGC | -0.336
ATGAGCCA | 0.058
AGAACCGC | 0.096
AGACACTC | -0.0228
CGTGTGGA | -0.172
TAGCCGAA | 0.0185
TACCGCTA | -0.0732
TCACTAGA | 0.12
CTTAGTCC | -0.0064

Sequence | PBM E-score
CAGTAATG | 0.282
AACCCGTC | -0.177
GCAGTAAC | -0.0889
GTCGCCGA | -0.159
ATACTCTA | 0.0965
GAGACACA | -0.0143
AAAAACTA | 0.26
ACTTCAAC | 0.108
CATTCAAC | 0.0394
ATTAGATG | 0.329
TTAAAGAA | 0.117
CATCCGGC | -0.00234
TAAGGGAA | 0.149
ACACCCAC | 0.00384
CCTCGGCC | 0.0245
CGTTATAC | -0.168
AGTAACTA | 0.137
CAAATAAG | 0.0366
GCCCAAGA | -0.17
AAGATCCT | 0.237
AATTGAGG | 0.149
ATATATCA | 0.0628
ACCATGAA | 0.0989
ACCAAACT | 0.0243
GTGGTCCA | 0.0238

Sequence | PBM E-score
GTGCATAA | 0.0823
ATGCCAGA | 0.0873
CGGGCGCC | -0.158
GCTTCCAC | -0.224
AGTTGGCC | -0.141
GCTGTAAC | 0.074
AATCACCC | 0.157
AGAGGGGC | -0.284
AAAGATAC | 0.12
ACCGCCTC | -0.215
CTATTCAG | 0.0682
ACAGATCT | 0.0117
AAGGTCGC | -0.155
ACGGGACA | -0.0377
CAGATTTA | 0.241
AAGGCAAC | 0.0645
TGAGTTAA | 0.239
AATAAAGG | 0.0453
AGCTCCTG | -0.236
AGAAGCCG | -0.138
AGGGCACC | -0.315
CCCAAGAG | -0.146
GCTAGTCA | 0.0653
AGCGACTC | -0.0349
GTGGTGTA | 0.122

Sequence | PBM E-score
AATAAATA | 0.378
CGCAGAGA | -0.0686
GGTGAAAA | 0.158
AGCTATTC | 0.00704
ACTTGGCT | 0.102
CACCCGAG | -0.105
CTAACAGA | 0.163
GGCGCTCA | -0.204
GATCTCCC | -0.247
ATGCAGTC | -0.0212
ACAACAAT | 0.122
CAGACCTC | -0.102
ACTCCCTG | 0.00695
GGGGGCAA | -0.28
ATATATCG | 0.228
AAGTCGTA | 0.0926
AGTCAACA | 0.184
CAGGGCAA | -0.132
AGAGCATC | -0.179
GGCGGCGA | -0.0551
GTACAATA | 0.199
TACGGCGA | 0.0446
CCTATAAC | -0.142
CCGAGTAC | -0.0398
AGCGACAG | 0.0176

Sequence | PBM E-score
AGCATGGA | -0.166
CAAAATAG | 0.0554
AAAAGTCT | 0.0541
AACGTAAC | 0.113
CATCAAGA | 0.122
TGAATACA | 0.21
AGTGCATC | -0.0224
ACAACCCA | 0.0739
GTAGTTGA | 0.269
CGTCGACG | -0.386
AAGGCGGA | -0.0452
AAGGGAGG | -0.32
ACGTTATA | 0.167
AGTGCACC | -0.00086
ACACACAG | 0.0568
CATGCGGA | -0.171
CCAGGATA | 0.164
ACAACGGC | -0.124
GTCTACTA | 0.179
CGCACCCA | -0.3
CAGCACGC | -0.059
ATGATGAG | 0.0214
CGCTTCAG | -0.15
CATCTTAA | 0.166
GCACCTCA | 0.0735

Sequence | PBM E-score
AAATGACG | 0.0876
CTCAACGC | -0.285
AACCTGAG | 0.112
CGAGGTAG | -0.311
GCAGGCCA | -0.168
AGGGTCTA | -0.106
GAATATGA | 0.203
GAAAGAGC | -0.0205
CCCAAACG | -0.21
CCCACGGC | -0.21
ATGCACGG | -0.204
ACGGGGTC | -0.271
ATTCAGCC | -0.0397
ATCCCACA | -0.0695
GGTGTAAC | 0.0807
CGAAAGAC | 0.0779
ACGGCGCA | 0.00405
ACATGAGG | -0.0701
ACCGTTGG | -0.187
CATTAGTC | 0.013
CTTTTACA | 0.23
CACCTCAC | 0.0264
AGGCAGCG | -0.245
ATCAGAAG | 0.0587
GCCGGACC | -0.32

Sequence | PBM E-score
CTTGTATC | 0.184
TGAGTGAA | 0.0649
GATGTCCA | 0.0453
GAGATACC | 0.00548
CAAGGAAG | 0.0258
ATCCCTTG | -0.0289
GTAGGGCA | -0.0411
AAATCGTG | 0.256
GTGAAAGA | 0.0852
TACCGCGA | 0.0786
AGTAGTTG | 0.176
CTGACCTC | -0.13
CTATCGCC | -0.346
AAGCAACT | 0.123
GGAATTTA | 0.16
CGGTGATA | 0.178
AACCTCCC | -0.2
CGCTAATC | -0.0406
CCGTTAGC | -0.135
CAGATTCC | -0.0173
AAAAAACG | 0.243
CATGAGAG | -0.0357
ACCCTCGC | -0.254
ATACAATA | 0.332
GTGGATCA | 0.0654

Sequence | PBM E-score
ACACCTCC | -0.212
AGGCGTTG | -0.0125
CTGATGAC | -0.076
ACCAATCT | -0.0208
GCGGATGA | 0.0612
ACAGACGT | -0.24
GCCACCCC | -0.319
CATTGATA | 0.172
TGAAGTCA | 0.0881
CACATATA | 0.0859
CACGACAG | -0.0203
GCCTATTA | 0.0806
CCCTGGAC | -0.294
AATTCTCC | 0.293
CATGAACA | 0.166
ATTCGCAC | -0.0817
CGTTAGAC | -0.13
AGTATGAG | 0.159
CAAACTCG | 0.0731

Reference: the supplement of paper PMC3334620
